From the supplement of paper PMC4166925 come the findings set out here.

± gives the standard deviation of the averaged measurements. In all, about 33,000 sequences were measured (“E-score (dimensionless, -0.5 to 0.5)”: median about -0.049, highest 2% from about 0.37 on). This is one part of the list.

For this assay, the system named is T1, PmTbr T-box DNA-binding domain (GST fusion).
T1 sequence: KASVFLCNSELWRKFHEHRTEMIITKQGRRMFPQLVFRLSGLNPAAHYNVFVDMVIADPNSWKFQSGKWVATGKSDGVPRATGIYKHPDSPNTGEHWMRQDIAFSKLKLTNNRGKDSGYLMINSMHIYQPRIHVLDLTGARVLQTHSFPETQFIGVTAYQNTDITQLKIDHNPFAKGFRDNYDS
The assay is described as follows: PBM E-score of 8-mer (E-score (dimensionless, -0.5 to 0.5)); Tbr is Tbrain of the sea star Patiria miniata (Pm) or the sea urchin Strongylocentrotus purpuratus (Sp); higher = stronger binding preference; most listed sequences are background and not binding sites. The conditions noted are these: the construct has about 5 more residues each side. The method in brief:
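Expression of GST-fused Tbr T-box DNA-binding domains, each holding the full T-box plus roughly five flanking residues, was carried out in BL21 E. coli at 20 °C, with purification by glutathione affinity chromatography. Universal Agilent arrays made double-stranded by primer extension were incubated with the protein at 200 nM in PBS (pH 7.5), then scanned and quantified. All ungapped 8-mers were scored from probe intensities, and each received an enrichment E-score from the Universal PBM Analysis Suite, averaged over duplicate arrays.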
For the sequence GCCTCTAC, the “PBM E-score of 8-mer” value was -0.0551 ± 0.073. On to GGTAATAC, for which the “PBM E-score of 8-mer” value was -0.222 ± 0.0066. To ATAAGTTA belongs -0.0303 ± 0.078; to CCAGCAGC, -0.165 ± 0.081. For the sequence AGGGTCAA, the “PBM E-score of 8-mer” value is -0.22 ± 0.031. Under ACCGATAA stands 0.124 ± 0.036. Under AGCCCTTA stands -0.265 ± 0.047; under GTCGTAAC, 0.13 ± 0.018. Under ACTAGCAG stands -0.0294 ± 0.074. On to CTGTAGTC, for which the “PBM E-score of 8-mer” value is -0.217 ± 0.031. To AGCTCTAC belongs -0.155 ± 0.018.

Turning to GAATTCCC, the “PBM E-score of 8-mer” value turned out to be 0.0309 ± 0.029.

Turning to ATACTAAG, the “PBM E-score of 8-mer” value was -0.149 ± 0.09. Turning to CCTTGCCA, the “PBM E-score of 8-mer” value was -0.0347 ± 0.035. With ATGCTGCC, the “PBM E-score of 8-mer” value was -0.293 ± 0.037. CCGAGAAA: the “PBM E-score of 8-mer” value was -0.00927 ± 0.024. Under CTCAGTCC stands -0.148 ± 0.11. Under CAACCATA stands -0.0974 ± 0.051. To CGCGTGCA belongs -0.0148 ± 0.058. On to CGAATCAA, for which the “PBM E-score of 8-mer” value was determined as 0.0381 ± 0.021. Under CCGTGTAG stands -0.0444 ± 0.053; under GCGTAAGC, -0.0353 ± 0.016; under CAGCTATA, -0.0172 ± 0.066. With ATGCATAG, the “PBM E-score of 8-mer” value is -0.105 ± 0.011.

On to CGCTAAGA, for which the “PBM E-score of 8-mer” value came to 0.205 ± 0.039. To GGGAGATA belongs -0.077 ± 0.1; to TCATCGAA, -0.155 ± 0.1; to AGTATGAT, -0.0161 ± 0.089. To CCGATCGC belongs 0.0207 ± 0.021. Under AGAGAATC stands -0.0446 ± 0.043. As for CGAACACA, the “PBM E-score of 8-mer” value stood at 0.2078 ± 0.0007. Under GGCGAGCA stands -0.102 ± 0.048; under GTCTAAAA, -0.0666 ± 0.022; under CCGGTGAG, 0.0229 ± 0.12. To CGCGGTTA belongs 0.0257 ± 0.021. To ACGTTTTG belongs 0.0123 ± 0.034; to GGATTGCA, -0.0775 ± 0.053.

With AAAGGTGA, the “PBM E-score of 8-mer” value came to 0.398 ± 0.025.

For TACATACA, the “PBM E-score of 8-mer” value was -0.24 ± 0.07. Turning to GATGATAC, the “PBM E-score of 8-mer” value was -0.134 ± 0.052.

In the case of ATAAACGG, the “PBM E-score of 8-mer” value is -0.131 ± 0.087. AGAAAAGG: the “PBM E-score of 8-mer” value is -0.0223 ± 0.033. To GCTAATAA belongs -0.0664 ± 0.054; to CACCCCTG, 0.322 ± 0.012. To ACCGTAGG belongs 0.0335 ± 0.018; to GCCCGCGC, -0.0513 ± 0.00069; to AATCGTCA, 0.21294 ± 0.00012.

Consider CAGGCAGG, for which the “PBM E-score of 8-mer” value was -0.131 ± 0.083. To AATCGTGA belongs 0.194 ± 0.0058; to CGCGTTAA, 0.27 ± 0.013; to CGGCGACG, -0.0498 ± 0.079. Under CCTATCCG stands -0.178 ± 0.0092; under CCTGTACG, -0.199 ± 0.028; under AGTGTCGG, 0.38 ± 0.0074.

For the sequence CACGTCGG, the “PBM E-score of 8-mer” value worked out at 0.281 ± 0.016. Under CAATCGGA stands -0.266 ± 0.029; under GACGTATA, -0.189 ± 0.055.

With ACGTCAGT, the “PBM E-score of 8-mer” value was determined as 0.0998 ± 0.0086. To CACGCCAA belongs 0.312 ± 0.013; to ATAAAAGC, 0.015 ± 0.061. Under GATGAGGC stands -0.243 ± 0.04; under AGTGGTTC, -0.18 ± 0.0056.

As for TTACCAAA, the “PBM E-score of 8-mer” value came out at 0.1 ± 0.065. Under CACCGGTA stands 0.116 ± 0.025. To TATTCGAA belongs 0.0267 ± 0.0037. Under CAGCTGTA stands -0.0311 ± 0.023; under CAGAAAAC, -0.0688 ± 0.07; under ACGGCTCG, 0.216 ± 0.023.

GTCAACAC: the “PBM E-score of 8-mer” value came to 0.427 ± 0.012. To AATGTACT belongs -0.191 ± 0.068.

On to CTAGTCCC, for which the “PBM E-score of 8-mer” value is -0.132 ± 0.064. Under TGACGGCA stands 0.126 ± 0.097; under CAACAGAC, -0.137 ± 0.0075; under CCATCGTC, 0.147 ± 0.0089. CACTGGTA: the “PBM E-score of 8-mer” value was -0.0275 ± 0.024. To ATCACTAG belongs 0.0709 ± 0.015; to GGTACACC, -0.0342 ± 0.029; to AATAGAAT, -0.0447 ± 0.008. To GAGTCCAA belongs 0.00391 ± 0.083. In the case of GTACGCAC, the “PBM E-score of 8-mer” value came to 0.0886 ± 0.018. For ACCGGTCA, the “PBM E-score of 8-mer” value is -0.113 ± 0.002. Under ATCGCCCG stands 0.13 ± 0.044; under CCAGAACG, -0.0252 ± 0.013. Under AGCAGGCT stands -0.041 ± 0.024; under CTGACTTA, -0.296 ± 0.012; under ACTTCTCT, -0.00718 ± 0.036.

On to AATTGCCC, for which the “PBM E-score of 8-mer” value worked out at 0.0298 ± 0.0098. Under CTTACATC stands -0.0211 ± 0.062; under GAGACGGA, -0.116 ± 0.046; under TACCGTGA, -0.00931 ± 0.003.

With CTTGAGTC, the “PBM E-score of 8-mer” value is -0.262 ± 0.014. Under ATAGAGCG stands -0.0757 ± 0.0015. On to ATGGTGCA, for which the “PBM E-score of 8-mer” value is 0.0403 ± 0.03. Under ACTGTCAA stands 0.162 ± 0.028; under GACGGTAC, -0.0822 ± 0.11.

Take ATCACATA: the “PBM E-score of 8-mer” value worked out at 0.297 ± 0.028. To CACCATGA belongs 0.2123 ± 0.0012; to CAGATCTA, -0.124 ± 0.05.

As for CACGGGTC, the “PBM E-score of 8-mer” value was 0.0871 ± 0.051.

In the case of CGCCCCTC, the “PBM E-score of 8-mer” value was -0.0104 ± 0.002.

On to GGATTCCA, for which the “PBM E-score of 8-mer” value is -0.0701 ± 0.079. Under GATGAGCC stands -0.212 ± 0.031; under GGCTTCCA, -0.273 ± 0.059. To ATGATAAC belongs 0.0197 ± 0.036; to AGGTATGA, 0.029 ± 0.038; to ATGCAACG, -0.0217 ± 0.018. For the sequence ACAACGTC, the “PBM E-score of 8-mer” value came out at 0.0762 ± 0.019. In the case of CGCGAACA, the “PBM E-score of 8-mer” value was 0.328 ± 0.007. In the case of ATGACCGC, the “PBM E-score of 8-mer” value is -0.328 ± 0.058. Under CTTTCCGA stands -0.0405 ± 0.025.
